Converted amounts (≈) assume the structure as drawn. Where two headings read alike, the source gives them in different places. Not every detail of the peptide structures is certain; ends, links or a residue may be inferred. Square brackets hold non-standard residues; d marks the D form. Peptide text beside a SMILES is read from it. * marks the point of attachment. Met(O2) = CS(=O)(=O)CC[C@H](N)C(=O)O; Fmoc = O=C(OCC1c2ccccc2-c2ccccc21)*; Orn = NCCC[C@H](N)C(=O)O; Abu = CC[C@H](N)C(=O)O; Aib = CC(C)(N)C(=O)O; Ahp = NCCCCCCC(=O)O
Legend:
[1] = tested on: Escherichia coli ATCC 25922
[2] = tested on: Staphylococcus aureus ATCC 29213
[3] = tested on: Streptococcus sanguis ATCC 10556
[4] = tested on: Candida albicans ATCC 10231
[5] = Tables 2-5, concentration necessary to inhibit 50% growth
[6] = Tables 3-5, lower parts (unnatural amino acids)
[7] = Tables 7-9, lower parts (unnatural amino acids)
[8] = Tables 11-13, lower parts (unnatural amino acids)
[9] = Tables 15-17, lower parts (unnatural amino acids)

Compound | IC50 against E. coli [1, 5] | IC50 against S. aureus ([2]; Tables 6-9) | IC50 against S. sanguis ([3]; Tables 10-13) | IC50 against C. albicans ([4]; Tables 14-17) | IC50 against E. coli [1, 6] | IC50 against S. aureus [2, 7] | IC50 against S. sanguis [3, 8] | IC50 against C. albicans [4, 9] | IC50 against E. coli ([1]; Tables 2-5, concentration necessary to inhibit 50% growth, listed as (KFmoc)Wfh-NH2) | IC50 against S. sanguis ([3]; Tables 10-13, listed as (KFmoc)Wfh-NH2) | IC50 against C. albicans ([4]; Tables 14-17, listed as (KFmoc)Wfh-NH2)
CC[C@@H](C)[C@@H](NC(=O)[C@@H](CS)NC(=O)[C@H](CCCCN)NC(=O)OCC1c2ccccc2-c2ccccc21)C(=O)N[C@@H](CS)C(N)=O [(KFmoc)ciC-NH2] (Fmoc-K[dC][dI]C-NH2) | 61 µg/mL (≈ 88.8 µM) | 17 µg/mL (≈ 24.7 µM) | 53 µg/mL (≈ 77.2 µM) | 537 µg/mL (≈ 782 µM) | – | – | – | – | – | – | –
N=C(N)NCCC[C@H](NC(=O)[C@@H](Cc1ccccc1)NC(=O)[C@H](Cc1c[nH]c2ccccc12)NC(=O)[C@H](CCCCN)NC(=O)OCC1c2ccccc2-c2ccccc21)C(N)=O [(KFmoc)WfR-NH2] (Fmoc-KW[dF]R-NH2) | 19 µg/mL (≈ 22.2 µM) | 2 µg/mL (≈ 2.33 µM) | 2 µg/mL (≈ 2.33 µM) | 101 µg/mL (≈ 118 µM) | – | – | – | – | – | – | –
CC[C@@H](C)[C@@H](NC(=O)[C@@H](CS)NC(=O)[C@H](CCCCN)NC(=O)OCC1c2ccccc2-c2ccccc21)C(=O)NCCCC[C@H](NC(=O)OCC1c2ccccc2-c2ccccc21)C(N)=O [(KFmoc)ci(KFmoc)-NH2] | – | – | – | – | 97 μg/m | 13 μg/m | 15 μg/m | 356 μg/m | – | – | –
NCCCC[C@H](NC(=O)OCC1c2ccccc2-c2ccccc21)C(=O)N[C@@H](Cc1c[nH]c2ccccc12)C(=O)N[C@H](Cc1ccccc1)C(=O)N[C@@H](Cc1c[nH]cn1)C(N)=O [(KFmoc)WfH-NH2] (Fmoc-KW[dF]H-NH2) | 85 µg/mL (≈ 101 µM) | 9 µg/mL (≈ 10.7 µM) | 8 µg/mL (≈ 9.55 µM) | 207 µg/mL (≈ 247 µM) | – | – | – | – | 73 µg/mL (≈ 87.1 µM) | 9 µg/mL (≈ 10.7 µM) | 338 µg/mL (≈ 403 µM)
CC[C@H](NC(=O)[C@H](CCCCN)NC(=O)[C@H](Cc1c[nH]c2ccccc12)NC(=O)[C@H](CCCCN)NC(=O)OCC1c2ccccc2-c2ccccc21)C(N)=O [(KFmoc)WK(aABA)-NH2] (Fmoc-KWK[Abu]-NH2) | 48 µg/mL (≈ 62.6 µM) | 6 µg/mL (≈ 7.82 µM) | 7 µg/mL (≈ 9.13 µM) | 245 µg/mL (≈ 319 µM) | – | – | – | – | – | – | –
NCCCC[C@H](NC(=O)OCC1c2ccccc2-c2ccccc21)C(=O)N[C@@H](Cc1c[nH]c2ccccc12)C(=O)N[C@@H](CCCCN)C(=O)NCCCCCCC(N)=O [(KFmoc)WK(7aHa)-NH2] (Fmoc-KWK[Ahp]-NH2) | 104 µg/mL (≈ 129 µM) | 17 µg/mL (≈ 21 µM) | 19 µg/mL (≈ 23.5 µM) | 252 µg/mL (≈ 311 µM) | – | – | – | – | – | – | –
NCCCC[C@H](NC(=O)OCC1c2ccccc2-c2ccccc21)C(=O)N[C@@H](Cc1c[nH]c2ccccc12)C(=O)N[C@@H](Cc1ccc(O)cc1)C(=O)N[C@@H](CCCN)C(N)=O [(KFmoc)WY(Orn)-NH2] (Fmoc-KWY[Orn]-NH2) | – | – | – | 177 µg/mL (≈ 213 µM) | 29 μg/m | 6 μg/m | 7 μg/m | 183 μg/m | – | – | –
CS(=O)(=O)CC[C@H](NC(=O)[C@@H](Cc1ccccc1)NC(=O)[C@H](Cc1c[nH]c2ccccc12)NC(=O)[C@H](CCCCN)NC(=O)OCC1c2ccccc2-c2ccccc21)C(N)=O [(KFmoc)Wf(MetO2)-NH2] (Fmoc-KW[dF][Met(O2)]-NH2) | – | – | – | – | 62 μg/m | 5 μg/m | 8 μg/m | 150 μg/m | – | – | –
NCCCC[C@H](NC(=O)OCC1c2ccccc2-c2ccccc21)C(=O)N[C@@H](Cc1c[nH]c2ccccc12)C(=O)N[C@@H](CCCCN)C(=O)NCC(N)=O [(KFmoc)WKG-NH2] (Fmoc-KWKG-NH2) | 66 µg/mL (≈ 89.3 µM) | 7 µg/mL (≈ 9.47 µM) | 6 µg/mL (≈ 8.12 µM) | 217 µg/mL (≈ 294 µM) | – | – | – | – | – | – | –
CC[C@H](C)[C@H](NC(=O)[C@H](CCCCN)NC(=O)[C@H](Cc1c[nH]c2ccccc12)NC(=O)[C@H](CCCCN)NC(=O)OCC1c2ccccc2-c2ccccc21)C(N)=O [(KFmoc)WKI-NH2] (Fmoc-KWKI-NH2) | 29 µg/mL (≈ 36.5 µM) | 9 µg/mL (≈ 11.3 µM) | 9 µg/mL (≈ 11.3 µM) | 79 µg/mL (≈ 99.4 µM) | – | – | – | – | – | – | –
CC(C)(NC(=O)[C@H](CCCCN)NC(=O)[C@H](Cc1c[nH]c2ccccc12)NC(=O)[C@H](CCCCN)NC(=O)OCC1c2ccccc2-c2ccccc21)C(N)=O [(KFmoc)WK(aAIB)-NH2] (Fmoc-KWK[Aib]-NH2) | 57 µg/mL (≈ 74.3 µM) | 9 µg/mL (≈ 11.7 µM) | 8 µg/mL (≈ 10.4 µM) | 281 µg/mL (≈ 366 µM) | – | – | – | – | – | – | –
NCCCC[C@H](NC(=O)OCC1c2ccccc2-c2ccccc21)C(=O)N[C@@H](Cc1c[nH]c2ccccc12)C(=O)N[C@H](Cc1ccccc1)C(=O)N1CCC[C@H]1C(N)=O [(KFmoc)WfP-NH2] (Fmoc-KW[dF]P-NH2) | 17 µg/mL (≈ 21.3 µM) | 4 µg/mL (≈ 5.01 µM) | 4 µg/mL (≈ 5.01 µM) | 133 µg/mL (≈ 167 µM) | – | – | – | – | – | – | –

Source: US5440016A, “Peptides of the formula (KFmoc) ZZZ and their uses” (priority 1993, dated 1995)
